{"source": "PubChem BioAssay AID485294", "about": "(National Center for Advancing Translational Sciences (NCATS), 2010)", "note": "Out of some 370,000 compounds screened, about 150 (0.041%) were called active. The shares of active, inactive and inconclusive entries below differ from those in the screen. Calls follow the shape of the dose curve; as a rule, active = well fitted inhibition curve with a large enough effect; inconclusive = small, poorly fitted or top-dose-only effect; inactive = flat fitted curve, though single readings scatter. Potencies of inconclusive entries are left out as doubtful fits. Potency is read from the fitted curve at half-maximal effect; tags tell the direction and shape of the fitted curve."}
{"biological_target": "Beta-lactamase (Escherichia coli (strain K12)) (UniProt P00811)", "sequence (P00811 whole entry, looked up)": "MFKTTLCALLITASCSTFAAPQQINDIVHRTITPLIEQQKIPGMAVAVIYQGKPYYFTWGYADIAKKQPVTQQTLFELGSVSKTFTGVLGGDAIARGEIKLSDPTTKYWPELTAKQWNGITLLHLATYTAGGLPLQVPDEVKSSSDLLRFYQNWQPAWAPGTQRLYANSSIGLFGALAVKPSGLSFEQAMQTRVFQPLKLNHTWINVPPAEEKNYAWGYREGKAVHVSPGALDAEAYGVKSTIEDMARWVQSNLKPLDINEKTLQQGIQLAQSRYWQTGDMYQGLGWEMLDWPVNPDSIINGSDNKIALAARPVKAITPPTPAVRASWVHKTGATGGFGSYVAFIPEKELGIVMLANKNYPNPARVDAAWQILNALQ", "experiment": "qHTS Inhibitors of AmpC Beta-Lactamase (assay with detergent); also: nearly all actives have a fitted effect of over 25% in size", "details": "AmpC hydrolysis of nitrocefin, absorbance 480 nm, 0.01% Triton; series mostly up to 114 µM", "procedure,_shortened": "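AmpC (5.3 nM in the dispensed reagent) in 20 mM phosphate pH 7.0 with 0.01% (detergent screen) or 0.0001% Triton X-100 was preincubated with compounds for 15 min at room temperature. Nitrocefin was then added from an 800 uM solution, and hydrolysis was followed at 480 nm.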"}
{"smiles": "COc1ccc(N2CCN(C(=O)Cc3ccc(Br)cc3)CC2)cc1", "Potency": "inconclusive [inhibitor, partial curve]"}
{"smiles": "c1ccc(-c2nnc(-c3ccco3)o2)cc1", "Potency": "inactive"}
{"smiles": "C=CCn1c(SCc2ccc(C(=O)Nc3nccs3)cc2)nnc1-c1ccc(C)c(Cl)c1", "Potency": "inconclusive [inhibitor, full curve, poor fit]"}
{"smiles": "N#CCSc1nnc(-c2ccccc2O)n1CCc1ccccc1", "Potency": "inconclusive [inhibitor, full curve, poor fit]"}
{"smiles": "COc1ccccc1CNC(=O)Cn1c(=O)oc2cc(S(=O)(=O)N3CCCC3)ccc21", "Potency": "inconclusive [inhibitor, partial curve, poor fit]"}
{"smiles": "Fc1ccc(-c2nnn(Cc3nc4ccccc4s3)n2)cc1", "Potency": "inconclusive [inhibitor, full curve, poor fit]"}
{"smiles": "CC[n+]1ccc(/C=C/c2ccc(N(C)C)cc2)c2ccccc21", "Potency": "inactive"}
{"smiles": "COc1cccc(C(=O)CN2C(=O)C(C)(C)Oc3ccc(C(=O)N4CCCCCC4)cc32)c1", "Potency": "inactive"}
{"smiles": "O=C(CN1CCN(c2ccccc2)CC1)NC(=O)NCc1ccco1", "Potency": "inactive"}
{"smiles": "O=C1c2ccccc2C(Nc2ccc3c(c2)OCCO3)N1Cc1ccc2c(c1)OCO2", "note": "(stereo not drawn)", "Potency": "inconclusive [inhibitor, full curve]"}
{"smiles": "COc1ccc(-c2nc3ccccc3s2)cc1O", "Potency": "inactive"}
{"smiles": "COc1ccc(N(C)C(=O)CN(C)S(=O)(=O)c2ccc3c(c2)c(=O)n(C)c(=O)n3C)c(OC)c1", "Potency": "inactive"}
{"smiles": "O=C(CSc1n[nH]c(-c2ccccn2)n1)Nc1ccc(F)cc1", "Potency": "inconclusive [inhibitor, full curve, poor fit]"}
{"smiles": "CCCCNS(=O)(=O)c1ccc2nc(-c3cccnc3)cc(C(=O)NCCCOC(C)C)c2c1", "Potency": "inactive"}
{"smiles": "COc1ccc2[nH]c3c(N4CCN(Cc5ccc6c(c5)OCO6)CC4)ncnc3c2c1", "Potency": "inconclusive [inhibitor, full curve, poor fit]"}
{"smiles": "O=C(CCNS(=O)(=O)c1ccc(Cl)cc1)N1CCCCCC1", "Potency": "inactive"}
{"smiles": "CCOc1cc(CNC2CCCC2)c(Cl)cc1OCC(=O)Nc1ccccc1", "Potency": "inactive"}
{"smiles": "CCC(=O)Nc1cccc(NC(=O)CSc2nnnn2C)c1", "Potency": "inconclusive [inhibitor, full curve, poor fit]"}
{"smiles": "CCCC(=O)c1cc(F)c(N2CCN(C(=O)OCC)CC2)cc1C", "Potency": "inconclusive [inhibitor, full curve, poor fit]"}
{"smiles": "COC(=O)C(O)(c1ccc(NC(=O)NC2CCCCC2)cc1)C(F)(F)F", "note": "(stereo not drawn)", "Potency": "inconclusive [inhibitor, full curve]"}
{"smiles": "O=C(Nc1cccnc1)c1ccc2snnc2c1", "Potency": "inconclusive [inhibitor, full curve]"}
{"smiles": "O=c1cc(CO)oc(CN2CCN(Cc3ccccc3)CC2)c1O", "Potency": "inconclusive [inhibitor, partial curve, poor fit]"}
{"smiles": "CCOc1ccc(NC(=O)CSc2nc3ccsc3c(=O)n2C(C)CC)cc1", "note": "(stereo not drawn)", "Potency": "inactive"}
{"smiles": "Cc1nnc(SCC(=O)Nc2c(Cl)cccc2Cl)[nH]c1=O", "Potency": "inconclusive [inhibitor, full curve, poor fit]"}
{"smiles": "O=c1[nH]c(=S)c2c(n1-c1ccccc1)CCC2", "Potency": "inconclusive [inhibitor, full curve, poor fit]"}
{"smiles": "Cc1ccc(NS(=O)(=O)c2ccc(-c3cnc(C4CC4)o3)cc2)c(C)c1", "Potency": "inconclusive [inhibitor, partial curve, poor fit]"}
{"smiles": "CC(=O)O[C@H]1C(=O)[C@@]2(C)C([C@H](OC(=O)c3ccccc3)[C@]3(O)C[C@H](O)C(C)=C1C3(C)C)[C@]1(OC(C)=O)CO[C@@H]1C[C@H]2O", "note": "(stereo partly drawn)", "Potency": "inconclusive [inhibitor, partial curve, poor fit]"}
{"smiles": "CCCOc1ccc2c(C)c(CC(=O)OC)c(=O)oc2c1", "Potency": "inactive"}
{"smiles": "CC(Oc1ccc2c(-c3ccccc3)cc(=O)oc2c1)C(=O)NCC1CCC(C(=O)O)CC1", "note": "(stereo not drawn)", "Potency": "inconclusive [inhibitor, full curve, poor fit]"}
{"smiles": "Fc1ccccc1N1CCN(Cc2nc(-c3ccc(Cl)cc3Cl)no2)CC1", "Potency": "inconclusive [inhibitor, full curve, poor fit]"}
{"smiles": "Cc1ccc(-n2ncc3c(SCc4ccccn4)ncnc32)c(C)c1", "Potency": "inconclusive [inhibitor, single point]"}
{"smiles": "Cc1ccc(N2CCN(S(=O)(=O)c3ccc4oc(=O)ccc4c3)CC2)c(C)c1", "Potency": "inconclusive [inhibitor, single point]"}
{"smiles": "CS(=O)(=O)N(Cc1ccco1)CC(O)Cn1cc(C=O)c2ccccc21", "note": "(stereo not drawn)", "Potency": "inconclusive [inhibitor, full curve]"}
{"smiles": "O=C1CCCN1c1ccc(CNS(=O)(=O)c2ccc(F)cc2)cc1", "Potency": "inactive"}
{"smiles": "CCOC(=O)c1cnc(SCC(=O)c2ccc3c(c2)OCCO3)nc1N", "Potency": "inconclusive [inhibitor, partial curve, poor fit]"}
{"smiles": "COc1cccc(-c2ccc(NC(=O)C3CCCN(Cc4cnn(C(C)C)c4)C3)cc2)c1", "note": "(stereo not drawn)", "Potency": "inactive"}
{"smiles": "CCOC(=O)N1CCN(C(=O)CSc2nc3c(cnn3-c3ccc(Cl)cc3)c(=O)[nH]2)CC1", "Potency": "inconclusive [inhibitor, partial curve]"}
{"smiles": "CC1Cn2c(nnc2-c2cccc(N)c2)S1", "note": "(stereo not drawn)", "Potency": "inconclusive [inhibitor, full curve, poor fit]"}
{"smiles": "COCCCNC(=O)NC(CCC(C)C)c1c(-n2cccc2)sc2c1CCN(C)C2", "note": "(stereo not drawn)", "Potency": "inactive"}
{"smiles": "COc1ccc2c(c1)c(=O)c(C(=O)O)c(-c1ccc3c(c1)OCO3)n2C", "Potency": "inconclusive [inhibitor, partial curve]"}
{"smiles": "COc1cc(/C=C2/C(=O)NN(c3cccc(F)c3)C2=O)ccc1OC(=O)c1ccco1", "Potency": "inconclusive [inhibitor, partial curve]"}
{"smiles": "CCCCn1c(N)c(N(CC(C)C)C(=O)C2CC(=O)N(c3ccc(CC)cc3)C2)c(=O)[nH]c1=O", "note": "(stereo not drawn)", "Potency": "inactive"}
{"smiles": "O=C(/C=C/c1ccc2c(c1)OCO2)Nc1cc(S(=O)(=O)N2CCOCC2)ccc1N1CCOCC1", "Potency": "inconclusive [inhibitor, full curve, poor fit]"}
{"smiles": "Cc1nnc2c(-c3ccccc3)nc3ccccc3n12", "Potency": "inconclusive [inhibitor, full curve, poor fit]"}
{"smiles": "CCn1c(SCC(=O)N2CCOCC2)nc2c(c1=O)SC(C)C2", "note": "(stereo not drawn)", "Potency": "inconclusive [inhibitor, partial curve, poor fit]"}
{"smiles": "CCCCn1c(-c2cccc(C)c2)nc2cc3[nH]c(=O)c(C(C)C)nc3cc21", "Potency": "inconclusive [inhibitor, partial curve, poor fit]"}
{"smiles": "O=C(NCCc1c[nH]c2ccccc12)[C@@H]1C[C@H]1[C@@H](NP(=O)(c1ccccc1)c1ccccc1)c1ccccc1", "Potency": "inconclusive [inhibitor, full curve, poor fit]"}
{"smiles": "Cc1ccc2nc(SCC(=O)NCc3ccco3)c(C#N)cc2c1", "Potency": "inconclusive [inhibitor, partial curve]"}
{"smiles": "COc1ccc(C)cc1NC(=O)NNC(=O)C1CCC(C(C)(C)C)CC1", "note": "(stereo not drawn)", "Potency": "inconclusive [inhibitor, partial curve, poor fit]"}
{"smiles": "O=C(NCCNc1ccnc2cc(Cl)ccc12)c1ccccc1F", "Potency": "inconclusive [inhibitor, full curve, poor fit]"}
{"smiles": "CC(=O)/C(C[N+]1(C)CCCCC1)=N\\O", "Potency": "inconclusive [inhibitor, full curve, poor fit]"}
{"smiles": "Cn1c(=O)oc2cc(S(=O)(=O)NCCC(=O)N3CCc4ccccc4C3)ccc21", "Potency": "inconclusive [inhibitor, single point]"}
{"smiles": "COc1ccccc1N1CC(C(=O)OCC(=O)Nc2cc(C)on2)CC1=O", "note": "(stereo not drawn)", "Potency": "inconclusive [inhibitor, full curve, poor fit]"}
{"smiles": "COc1cc(C)c(Cl)cc1S(=O)(=O)N1CCSC1", "Potency": "inconclusive [inhibitor, single point]"}
{"smiles": "Cc1cc(C)cc(Oc2cc(NC(=O)c3cn(C)nc3C)cc([N+](=O)[O-])c2)c1", "Potency": "inconclusive [inhibitor, partial curve, poor fit]"}
{"smiles": "COc1ccc(NC(C)=[N+](C)CCNS(=O)(=O)c2ccc(Cl)cc2)cc1", "Potency": "inconclusive [inhibitor, single point]"}
{"smiles": "Cc1cc(NC(=O)C(C)(C)C)cc(-c2nc3ncccc3o2)c1O", "Potency": "inactive"}
{"smiles": "Cc1ccc(S(=O)(=O)N(CCO)c2cc3c(s2)CCCC3)cc1", "Potency": "inconclusive [inhibitor, single point]"}
{"smiles": "CCOc1ccc(-n2ccn(CC(=O)NCCc3ccccc3)c(=O)c2=O)cc1", "Potency": "inconclusive [inhibitor, full curve, poor fit]"}
{"smiles": "c1cc2nncn2nc1N1CCCC1", "Potency": "inconclusive [inhibitor, partial curve, poor fit]"}
{"smiles": "O=C(CC1(O)C(=O)N(Cc2ccc3c(c2)OCO3)c2ccccc21)c1ccccc1", "note": "(stereo not drawn)", "Potency": "inconclusive [inhibitor, partial curve, poor fit]"}
{"smiles": "O=C1CSC(=S)N1/N=C/C=C/c1ccccc1", "Potency": "inconclusive [inhibitor, partial curve, poor fit]"}
{"smiles": "CCc1nnc(NC(=O)CCN(c2ccc(C)cc2)S(=O)(=O)c2ccccc2)s1", "Potency": "inconclusive [inhibitor, full curve, poor fit]"}
